Assay results as given in paper PMC4872721.
Results are given in words; binding and its absence hold for the method and conditions named. Binding seen in cells or lysates may run through a third protein. Some binding calls cover weakened binding; strength is not graded here. Tags and fused reporters may be left off the sequences shown.

The chains behind the UniProt entries cited, without tags or fusion partners. Where a name states a change or a piece, a line headed by the entry shows the natural chain unless it says otherwise. Residues count along the entry.
UniProt Q99814: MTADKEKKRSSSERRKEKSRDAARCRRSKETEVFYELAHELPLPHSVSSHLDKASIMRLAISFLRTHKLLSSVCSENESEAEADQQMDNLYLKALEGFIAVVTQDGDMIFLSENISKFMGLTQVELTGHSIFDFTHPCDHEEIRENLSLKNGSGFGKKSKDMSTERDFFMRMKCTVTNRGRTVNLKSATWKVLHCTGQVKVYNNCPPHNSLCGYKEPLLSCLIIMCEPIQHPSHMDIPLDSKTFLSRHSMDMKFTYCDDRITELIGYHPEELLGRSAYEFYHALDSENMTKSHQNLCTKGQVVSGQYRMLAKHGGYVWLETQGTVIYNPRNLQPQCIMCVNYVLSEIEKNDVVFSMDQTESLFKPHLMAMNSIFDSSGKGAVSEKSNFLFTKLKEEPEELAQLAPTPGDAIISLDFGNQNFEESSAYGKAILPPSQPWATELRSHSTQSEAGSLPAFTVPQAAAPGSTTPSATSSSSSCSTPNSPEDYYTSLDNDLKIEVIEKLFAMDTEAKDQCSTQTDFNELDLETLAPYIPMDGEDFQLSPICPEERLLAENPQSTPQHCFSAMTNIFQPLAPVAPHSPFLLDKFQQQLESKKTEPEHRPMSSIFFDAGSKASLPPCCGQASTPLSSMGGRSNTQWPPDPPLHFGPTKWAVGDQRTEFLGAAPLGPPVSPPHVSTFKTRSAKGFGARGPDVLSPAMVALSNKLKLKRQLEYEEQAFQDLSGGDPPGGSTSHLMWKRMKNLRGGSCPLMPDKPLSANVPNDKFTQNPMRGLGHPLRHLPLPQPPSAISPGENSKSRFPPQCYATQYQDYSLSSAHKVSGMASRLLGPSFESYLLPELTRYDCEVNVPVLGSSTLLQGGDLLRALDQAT
UniProt Q16665: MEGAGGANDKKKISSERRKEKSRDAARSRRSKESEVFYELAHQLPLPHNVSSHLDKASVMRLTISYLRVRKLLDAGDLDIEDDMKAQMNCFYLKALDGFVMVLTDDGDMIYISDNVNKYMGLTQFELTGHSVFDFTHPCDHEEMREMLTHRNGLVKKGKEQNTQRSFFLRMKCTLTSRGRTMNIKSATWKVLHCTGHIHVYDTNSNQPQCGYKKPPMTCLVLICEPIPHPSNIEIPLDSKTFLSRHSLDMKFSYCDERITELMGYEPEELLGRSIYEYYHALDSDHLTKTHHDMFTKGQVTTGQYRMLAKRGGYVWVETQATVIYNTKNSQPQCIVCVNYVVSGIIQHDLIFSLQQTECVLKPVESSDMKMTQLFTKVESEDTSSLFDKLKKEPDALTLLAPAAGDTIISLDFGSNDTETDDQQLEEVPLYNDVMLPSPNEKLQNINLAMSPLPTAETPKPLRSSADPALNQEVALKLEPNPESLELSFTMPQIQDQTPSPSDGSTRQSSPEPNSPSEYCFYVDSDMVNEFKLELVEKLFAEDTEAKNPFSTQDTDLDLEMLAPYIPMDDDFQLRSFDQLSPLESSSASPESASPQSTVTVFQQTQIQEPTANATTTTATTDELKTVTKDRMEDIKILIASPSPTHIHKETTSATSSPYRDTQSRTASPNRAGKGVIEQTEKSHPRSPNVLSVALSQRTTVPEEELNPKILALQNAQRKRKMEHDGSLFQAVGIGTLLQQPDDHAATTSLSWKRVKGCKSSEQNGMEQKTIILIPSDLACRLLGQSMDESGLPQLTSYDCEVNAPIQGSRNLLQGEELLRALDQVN
GST-HIF-1α (531-826): residues 531-826 of Q16665
GST-HIF-1α (531-588): residues 531-588 of Q16665
GST-HIF-1α (575-786): residues 575-786 of Q16665
GST-HIF-1α (786-826): residues 786-826 of Q16665

T1: V5-epitope-tagged PRDX2 (peroxiredoxin 2) (human) (UniProt P32119)
T1 sequence: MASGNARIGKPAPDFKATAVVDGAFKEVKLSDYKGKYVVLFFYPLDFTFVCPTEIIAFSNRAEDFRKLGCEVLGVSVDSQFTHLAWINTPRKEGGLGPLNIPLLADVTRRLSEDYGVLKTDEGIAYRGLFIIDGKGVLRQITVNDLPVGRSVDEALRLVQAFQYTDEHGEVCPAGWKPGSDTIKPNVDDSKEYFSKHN


What was measured:
[1] = target: T1, V5-epitope-tagged PRDX2 (peroxiredoxin 2) (human); test: co-IP; IP with anti-V5 antibody from whole cell lysate of PRDX2-V5-transfected HeLa cells exposed to 1% O2 for 24 h; modified RIPA buffer, overnight, protein A Sepharose; blot for HIF-1α
[2] = target: endogenous HIF-2α (hypoxia-inducible factor 2α) (human (endogenous in HeLa)) (UniProt Q99814); test: co-IP; IP with anti-HIF-2α antibody from whole cell lysate of transfected HeLa cells exposed to 1% O2 for 24 h; modified RIPA buffer, overnight, protein A Sepharose; blot for V5
[3] = target: endogenous HIF-1α (hypoxia-inducible factor 1α) (human (endogenous in HeLa)) (UniProt Q16665); test: co-IP; IP with anti-HIF-1α antibody from whole cell lysate of transfected HeLa cells exposed to 1% O2 for 24 h; modified RIPA buffer (50 mM Tris-HCl pH 7.5, 1 mM β-mercaptoethanol, 150 mM NaCl, 1% Igepal), overnight, protein A Sepharose; blot for V5
[4] = target: GST-HIF-1α (531-826) (human) (UniProt Q16665); test: pull-down; purified GST-HIF-1α fusion proteins immobilised on glutathione-Sepharose beads, incubated overnight with HeLa whole cell lysate holding PRDX2-V5 or PRDX4-V5; washed three times; blot for V5; only the target purified
[5] = target: GST-HIF-1α (575-786) (human) (UniProt Q16665); test: as above
[6] = target: GST-HIF-1α (531-588) (human) (UniProt Q16665); test: as above
[7] = target: GST-HIF-1α (786-826) (human) (UniProt Q16665); test: as above

Molecule | binding [1] | binding [2] | binding [3] | binding [4] | binding [5] | binding [6] | binding [7]
V5-epitope-tagged PRDX3 (peroxiredoxin 3) (protein, UniProt P30048 62-256) APAVTQHAPYFKGTAVVNGEFKDLSLDDFKGKYLVLFFYPLDFTFVCPTEIVAFSDKANEFHDVNCEVVAVSVDSHFSHLAWINTPRKNGGLGHMNIALLSDLTKQISRDYGVLLEGSGLALRGLFIIDPNGVIKHLSVNDLPVGRSVEETLRLVKAFQYVETHGEVCPANWTPDSPTIKPSPAASKEYFQKVNQ |  | binds weakly | no binding |  |  |  | 
V5-epitope-tagged PRDX4 (peroxiredoxin 4) (protein, UniProt Q13162 38-271) WETEERPRTREEECHFYAGGQVYPGEASRVSVADHSLHLSKAKISKPAPYWEGTAVIDGEFKELKLTDYRGKYLVFFFYPLDFTFVCPTEIIAFGDRLEEFRSINTEVVACSVDSQFTHLAWINTPRRQGGLGPIRIPLLSDLTHQISKDYGVYLEDSGHTLRGLFIIDDKGILRQITLNDLPVGRSVDETLRLVQAFQYTDKHGEVCPAGWKPGSETIIPDPAGKLKYFDKLN |  | binds | binds weakly | binds | binds |  | 
V5-epitope-tagged PRDX2 (peroxiredoxin 2) (protein, UniProt P32119 1-198) MASGNARIGKPAPDFKATAVVDGAFKEVKLSDYKGKYVVLFFYPLDFTFVCPTEIIAFSNRAEDFRKLGCEVLGVSVDSQFTHLAWINTPRKEGGLGPLNIPLLADVTRRLSEDYGVLKTDEGIAYRGLFIIDGKGVLRQITVNDLPVGRSVDEALRLVQAFQYTDEHGEVCPAGWKPGSDTIKPNVDDSKEYFSKHN |  | binds | binds | binds | binds | binds weakly | no binding
V5-epitope-tagged PRDX5 (peroxiredoxin 5) (protein, UniProt P30044 53-214) MAPIKVGDAIPAVEVFEGEPGNKVNLAELFKGKKGVLFGVPGAFTPGCSKTHLPGFVEQAEALKAKGVQVVACLSVNDAFVTGEWGRAHKAEGKVRLLADPTGAFGKETDLLLDDSLVSIFGNRRLKRFSMVVQDGIVKALNVEPDGTGLTCSLAPNIISQL |  | no binding | no binding |  |  |  | 
V5-epitope-tagged PRDX1 (peroxiredoxin 1) (protein, UniProt Q06830 1-199) MSSGNAKIGHPAPNFKATAVMPDGQFKDISLSDYKGKYVVFFFYPLDFTFVCPTEIIAFSDRAEEFKKLNCQVIGASVDSHFCHLAWVNTPKKQGGLGPMNIPLVSDPKRTIAQDYGVLKADEGISFRGLFIIDDKGILRQITVNDLPVGRSVDETLRLVQAFQFTDKHGEVCPAGWKPGSDTIKPDVQKSKEYFSKQK |  | binds weakly | binds |  |  |  | 

More lines, now with the values ahead:

binding [1] | binding [2] | binding [3] | binding [4] | binding [5] | binding [6] | binding [7] | Molecule
binds |  |  |  |  |  |  | endogenous HIF-1α (hypoxia-inducible factor 1α) (from UniProt Q16665 1-826)
 | no binding | binds weakly |  |  |  |  | V5-epitope-tagged PRDX6 (peroxiredoxin 6) (protein, UniProt P30041 1-224) MPGGLLLGDVAPNFEANTTVGRIRFHDFLGDSWGILFSHPRDFTPVCTTELGRAAKLAPEFAKRNVKLIALSIDSVEDHLAWSKDINAYNCEEPTEKLPFPIIDDRNRELAILLGMLDPAEKDEKGMPVTARVVFVFGPDKKLKLSILYPATTGRNFDEILRVVISLQLTAEKRVATPVDWKDGDSVMVLPTIPEEEAKKLFPKGVFTKELPSGKKYLRYTPQP
